Reference: ChEMBL document CHEMBL4888484, “Replenishing the malaria drug discovery pipeline: Screening and hit evaluation of the MMV Hit Generation Library 1 (HGL1) against asexual blood stage Plasmodium falciparum ,using a nano luciferase reporter read-out” (2022)
The campaign covered roughly 150,000 compounds. About 540 (0.36%) showed an effect of 50% or more. Some of the results follow.

tested on: Plasmodium falciparum; test: Primary screen in NF54 nanoGlo assay, in single point, at 2uM, 72h; a lower Z score goes with more inhibition; format: functional, Erythrocyte; settings: timepoint 72 hour

SMILES	% Inhibition	Z score
CC[C@H](OC1CCCCC1)C(=O)Nc1cn[nH]c1	-8%	1.12
CN1CCCN(S(=O)(=O)NCc2ccccc2)CC1	-3%	0.52
Nc1cc(C(=O)N[C@@H]2COCC[C@@H]2OCC2CC2)n[nH]1	-5%	0.74
CC(=O)N1CCN(C(=O)NC2Cc3ccccc3C2)CCC12CCOCC2	-13%	1.47
Cc1cccc(-n2c(=O)n(C3CC3)c(=O)c3c2ncn3Cc2cccc(C(F)(F)F)c2)c1	-5%	0.65
Cc1cc(NC(=O)N2CCO[C@H](C(F)(F)F)[C@@H]2C)cc(C(N)=O)c1	10%	-1.9
C[C@H]1CN(C(=O)Nc2ccc(S(C)(=O)=O)cc2)N=C1c1ccc(S(C)(=O)=O)cc1	-11%	1.34
CCn1nc(COc2ccc(OC)cc2)nc1-c1ccc(CN(C)C)o1	12%	-1.82
CC(C)n1ncc(C(O)(C(F)(F)F)C(F)(F)F)c1NC(=O)c1ccn(C)n1	-2%	0.29
CC[n+]1ccc(-c2ncc(-c3ccc(C(C)(C)C)cc3)o2)cc1	66%	-12.84
CC1CC(NC(=O)c2csnn2)CCN1Cc1ccccc1 (stereo unspecified)	-6%	1.13
CC1(C)Cc2c(cnn2-c2cccc(F)c2)[C@@H](NS(=O)(=O)N2CCOCC2)C1	14%	-1.95
Cc1ccc(C)c(CC(=O)N2CCCO[C@@H](C)C2)c1	6%	-1.17
CC(=O)N[C@H]1C[C@H](c2nnc(CN3Cc4cnc(C)cc4C3)n2C)C1	-22%	2.18
CCCc1cc(C(=O)N2CCC3(CC2)NC(=O)NC3=O)sc1C	-13%	1.95
CC#CCN(Cc1ccco1)C(=O)c1cn(CCN2CCCCC2)nn1	5%	-0.93
CCn1c(CN2CCC(C)CC2)nc2cc(S(=O)(=O)N3CCCCC3)ccc21	7%	-1.02
COC(=O)c1ccc(C2(CN)CC2)cc1	-10%	0.96
CN(Cc1ncc[nH]1)C(=O)C1C2C(=O)N(CC(C)(C)C)C[C@@]23C=C[C@@H]1O3 (stereo partly specified)	-11%	1.23
O=C(O)[C@H](Cc1ccccc1)NC(=O)C1(N2CCCC2)CCCC1	-6%	0.64
NS(=O)(=O)c1cnc(N2CCC[C@H](c3nccs3)C2)s1	-11%	1.79
O=C(Nc1ccc2ncnc(N3CCCCC3)c2c1)c1cncc(Br)c1	-6%	1.16
CC(=O)Nc1onc(C)c1-c1ccc(C)c(S(=O)(=O)Nc2cc(C)ccc2C)c1	-4%	0.64
CCOc1ccc(CCn2c3c(c(=O)[nH]c2=O)C(C(F)(F)F)(C(F)(F)F)N=C(c2ccccc2F)N3)cc1OCC	-18%	2.33
OC1(c2csc(CN3CCc4ccccc4C3)n2)CCNCC1	10%	-1.22
C[C@H]1Cc2cc(C(=O)NCc3nc(C(F)(F)F)n[nH]3)ccc2O1	43%	-6.15
O=C(NCCc1cccc(-c2ccccc2)c1)[C@H]1CCNC1	-16%	1.87

SMILES	% Inhibition	Z score
Cc1ccc(-c2cc(C(=O)NC3CC3)nn2C)cc1	-10%	1.31
COC(=O)c1c(-c2csc(-c3ccc(NC(C)=O)cc3)n2)c(C)n(C(C)C)c1C	-11%	1.48
Oc1ccc2c(c1)CN([C@H]1CCCc3ccccc31)CC2	-5%	0.69
O[C@H](CN1CCCNc2ccccc21)Cn1cccn1	5%	-0.6
COC(=O)c1cc(-n2cnc3ccccc32)c[nH]1	-16%	1.77
CCc1noc(C)c1COc1cc(N(C)C)ccc1C(C)=O	23%	-2.56
CC(C)(C)c1cccc(OS(=O)(=O)c2cccnc2)c1	-12%	1.9
Cc1cc(N2CC[C@H](c3ccc(C(=O)O)cc3)C2)nc2ccccc12	-12%	2.19
Cc1ccc([C@H](CNC(=O)c2ccc(Br)o2)N2CCCC2)o1	-2%	0.4
O=C(N[C@H](C(=O)c1ccccc1)N1CCCC1)c1ccccc1	-7%	0.98
CNC(=O)[C@H]1CCN(Cc2csc(-c3ccc(C(F)(F)F)cc3)n2)C1	-6%	0.9
Cc1ccc(C(=O)N(C2CC2)[C@H]2CCc3ccccc32)c(=O)[nH]1	-11%	1.24
CCc1onc(C)c1NC(=O)N1CCN(C)C[C@@H]1CC(C)C	-7%	1.44
O=S(=O)(Nc1cccc(-c2nnc3n2CCC3)c1)c1ccc2c(c1)OCCCO2	34%	-4.53
COc1c(C)cc(C2CCc3nc(C(=O)NCCCN4CCCCC4C)cn3C2)cc1C (stereo unspecified)	5%	-1.07
CCc1nc(-c2ccc(-c3noc(-c4ccc(C#N)cc4F)n3)cc2)cs1	-10%	1.06
CN(C)c1ccc(-n2cnnc2)cc1N	-10%	1.41
Cc1noc(C)c1S(=O)(=O)N1CC[C@H](c2ccc3c(c2)CCO3)C1	4%	-0.74
CN1CCN(c2c(F)cc3c(=O)c(C(=O)Nc4cc(F)c(F)cc4N)cn4c3c2OCN4C)CC1	15%	-2.84
Cc1noc(C)c1CC(=O)Nc1cc(C2CCCCCC2)[nH]n1	1%	-0.15
C[C@H](Oc1ccccc1)C(=O)N1CCC(c2nc(-c3ccncc3)cs2)CC1	-3%	0.46
CCNc1ncc(C(=O)N2CCC[C@H]2c2nc(-c3ccccc3)no2)cn1	-13%	2.48
CC1CN(C(=O)CN2CCOCC2=O)C(c2ccccc2)CO1 (stereo unspecified)	2%	-0.24
CCCc1nnc(N2CCC(O)(CO)CC2)o1	-7%	0.95
CCOC(=O)[C@H]1CCCN(Cc2ccc(N3CCOCC3)cc2)C1	-14%	1.83
Cc1onc(C(=O)N[C@H]2CCCN(c3ccc(=O)n(C)n3)C2)c1CN1CCCCC1	-2%	0.3
